Inhibition data for 98 compounds are collected here from PubChem BioAssay AID485344 (National Center for Advancing Translational Sciences (NCATS), 2010).

Values joined by “and” are separate entries in the source; they are usually repeats but may differ in a detail not shown here. Identical values can stand only once. The whole screen tested about 340,000 compounds, of which about 6,900 (2%) were called active. No stated cut-off is given here; in the data, active means inhibition above about 30%; inactive means below that, where a call was filed. Only a part is listed here, and it is no random draw. The source gives no active or inactive call for entries shown without one.

As a reminder, the inhibition is the change of the read-out against control, counted positive when it falls.

Sequence of UniProt P14416 (P14416 whole entry, looked up): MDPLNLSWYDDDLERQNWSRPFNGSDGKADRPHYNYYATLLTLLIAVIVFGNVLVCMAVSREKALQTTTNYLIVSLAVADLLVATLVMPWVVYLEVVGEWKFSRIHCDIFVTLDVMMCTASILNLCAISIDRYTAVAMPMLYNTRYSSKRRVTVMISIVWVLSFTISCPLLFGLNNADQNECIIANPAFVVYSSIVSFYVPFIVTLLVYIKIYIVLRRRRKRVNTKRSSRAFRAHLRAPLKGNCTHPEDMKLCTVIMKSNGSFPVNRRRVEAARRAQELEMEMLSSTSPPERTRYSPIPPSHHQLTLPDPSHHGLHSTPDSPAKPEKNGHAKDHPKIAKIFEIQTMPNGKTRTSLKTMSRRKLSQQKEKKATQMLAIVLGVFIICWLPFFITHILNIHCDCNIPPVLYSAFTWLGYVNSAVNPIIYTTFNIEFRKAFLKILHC

For this experiment, the target named is D(2) dopamine receptor (Homo sapiens) (UniProt P14416). As to the kind of experiment: HTS Assay for Allosteric Antagonists of the Human D2 Dopamine Receptor: Primary Screen for Antagonists. Further: 0% is about no effect. The conditions noted are these: HEK293 TREx D2 cells, calcium flux, dopamine EC80; at 10 µM; stronger effect = higher value. The procedure, abridged:
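Overnight-induced (tetracycline, 30 C) HEK293 T-REx cells carrying force-coupled D2 receive a no-wash calcium dye, then compound, then EC80 dopamine at 180 s; signals are read kinetically throughout.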
In general terms: Calcium assays in cells follow changes in intracellular calcium, usually with a dye or a luminescent sensor.
Turning to `COc1ccccc1N1CCN(Cc2ccc(-c3ccccc3[N+](=O)[O-])o2)CC1`, the inhibition is active: 85.6%.

`CSc1ccc(CCNC(=O)C(C)n2nc(C)c3c(C)n(-c4ccccc4)nc3c2=O)cc1` (stereo not drawn): the inhibition was 18.1%.

For `Cc1cc(F)ccc1NC(=O)C1CCCN(c2nnc(-n3c(C)ccc3C)s2)C1` (stereo not drawn), the inhibition was determined as 8.24%.

`COc1ccc(NC(=O)Cn2c(=O)nc(-c3ccccc3)c3ccccc32)cc1OC`: the inhibition is -0.957%.

With `Cn1ncc(C(=O)N2CCN(c3ccccc3)CC2)c1C1CCN(C(=O)OC(C)(C)C)CC1`, the inhibition came out at 1.14%.

For `Cc1ccc(CCNC(=O)NCc2noc3ccc(C)cc23)cc1`, the inhibition stood at 18.1%.

In the case of `Cc1cccc(NC(=O)CSc2nnc(-c3cccs3)o2)c1`, the inhibition is -16.3%.

For `Cc1cccc(NC(=O)C(c2ccccc2)N2Cc3ccccc3C2=O)c1C` (stereo not drawn), the inhibition is -6.39%.

Regarding `Cc1noc2ncnc(Nc3ccc(F)cc3)c12`, the inhibition was -8.12%.

Regarding `COC(=O)c1sccc1S(=O)(=O)N(CC(=O)Nc1ccc(C)cc1)c1ccccc1`, the inhibition turned out to be 7.96%.

Regarding `COc1cccc2cc(-c3nnc(Nc4ccccc4C)s3)c(=O)oc12`, the inhibition is -6.11%.

In the case of `COc1ccccc1N1CCN(C(=O)CCn2cnc3onc(-c4ccc(F)cc4)c3c2=O)CC1`, the inhibition was 9.15%.

`COc1ccc(NS(=O)(=O)c2ccc3c(c2)CCN3C(=O)C2CC2)cc1OC`: the inhibition turned out to be 19.4%.

Take `Cc1cc(C)c2c(=O)cc(C(=O)NCCc3ccc(S(N)(=O)=O)cc3)oc2c1`: the inhibition is 3.1%.

As to `CCNc1nc(N)c(C(=C(C#N)C#N)c2ccccc2)s1`, the inhibition is active: 45.3%.

On to `COc1cccc(CNC(=O)Cn2c(=O)c3cccn3c3ccc(F)cc32)c1OC`, for which the inhibition was 5.92%.

Consider `CSc1cccc(CNC(=O)C2CCC(=O)N(CCCN3CCCC3=O)C2)c1` (stereo not drawn), for which the inhibition was active: 85.7%.

Regarding `Cc1ccccc1CNC(=O)C(=O)NCC(c1ccco1)S(=O)(=O)c1ccc(F)cc1` (stereo not drawn), the inhibition is -20.9%.

For the compound `CCc1ccc(C(C)NC(=S)NC2CCCCC2)cc1` (stereo not drawn), the inhibition was active: 48.2%.

On to `CCCS(=O)(=O)N1CCC(N2CCN(Cc3ccc(C)cc3)C(=O)C2=O)CC1`, for which the inhibition came out at 2.74%.

As to `Cc1nn(C)c2c1c(-c1ccccc1)cc(=O)n2Cc1ccccc1F`, the inhibition is -6.65%.

Turning to `Cc1c(Cl)cccc1NC(=O)N1CCN(Cc2cc(=O)n3nc(-c4ccccc4F)sc3n2)CC1`, the inhibition is -12.4%.

On to `NC(=O)CSc1ncc2c(n1)-c1ccccc1N(Cc1ccccc1)S2(=O)=O`, for which the inhibition was -0.264%.

`COc1ccc(NC(=O)c2cccc(N3CCCS3(=O)=O)c2)cc1`: the inhibition is -3.85%.

Consider `CN(C)c1ccc(C(CNC(=O)COc2ccccc2)N2CCOCC2)cc1` (stereo not drawn), for which the inhibition stood at 2.64%.

For the compound `O=C(CN1C(=O)CCSc2ccc(S(=O)(=O)N3CCCC3)cc21)Nc1cccc(Cl)c1`, the inhibition turned out to be 10.7%.

Take `Cc1ccc(N/C(N)=N/c2nc(C)cc(C)n2)cc1`: the inhibition is active: 31.1%.

As for `COc1cc(Cl)c(C)cc1NC(=O)CSc1cc(=O)n(C)c2cc(Cl)ccc12`, the inhibition was -6.95%.

Turning to `Cn1ncc2c(NCc3cccc(Cl)c3)ncnc21`, the inhibition is -25.8%.

On to `CCN(CC)S(=O)(=O)c1ccc2c(c1)N(CC(=O)NCc1ccccc1)C(=O)CS2`, for which the inhibition was 9.33%.

`CCOc1ccc(NC(=O)Nc2c(C)n(C)n(-c3ccccc3)c2=O)cc1`: the inhibition came out at 15%.

With `CCC(C)NC(=O)Cn1ncc2c(C)n(Cc3ccc(F)cc3)c(C)c2c1=O` (stereo not drawn), the inhibition is 2.21%.

In the case of `CCc1ccc(CNC(=O)c2nn(-c3ccc(C)c(C)c3)nc2CO)cc1`, the inhibition was -20.1%.

In the case of `Cc1ccc2c(CNCc3cccs3)c(C(=O)O)n(Cc3ccc(F)cc3)c2c1`, the inhibition is -9.56%.

As to `Cc1ccc2c(=O)cc(C(=O)Nc3sc4c(c3C(=O)NCc3ccco3)CCCC4)oc2c1C`, the inhibition was found to be 7.67%.

As for `COC(=O)c1ccc(Cn2c(=O)cc(C)c3c(C)nn(C)c32)cc1`, the inhibition turned out to be 7%.

On to `CCc1nnc2n1N=C(c1ccc(OC)cc1)CS2`, for which the inhibition is active: 34.1%.

Take `CCn1cc(C(=O)N2CCN(c3ccccc3)CC2)c(=O)c2cc(S(=O)(=O)N(C)C3CCCCC3)ccc21`: the inhibition was 1.03%.

As to `CC(=O)CSc1nc(-c2ccccc2)[nH]c1S(=O)(=O)c1ccc(C)cc1`, the inhibition turned out to be 10.3%.

Consider `COc1ccc(Cn2c(CO)cnc2SCc2ccccc2)cc1`, for which the inhibition is -2.59%.

`O=C(COCc1cc(-c2ccc(F)cc2)on1)Nc1cccc(C(F)(F)F)c1`: the inhibition worked out at 8.91%.

With `CCCOc1ccc(C2C(=O)N(C3CCCCC3)CC(=O)N2C2CCCCC2)cc1OC` (stereo not drawn), the inhibition was 8.93%.

Take `COc1ccc(-c2cn3c(n2)sc2cc(C(=O)NCCCN4CCN(C)CC4)ccc23)cc1`: the inhibition turned out to be 17.8%.

Consider `Fc1ccc(-n2cc(CNCCc3ccccn3)c(-c3ccccc3Cl)n2)cc1`, for which the inhibition is active: 79%.

For the compound `Cc1ccc(-n2c(=O)c3c(C)c(C(=O)N(C)C)sc3n(Cc3ccccc3C)c2=O)cc1C`, the inhibition stood at 16.1%.

Consider `Cc1cccc(Nc2nc(-c3ccccc3)nc3ccccc23)c1`, for which the inhibition was 7.26%.

Take `Cc1cccc(Cn2c(CN3CCC(C(=O)NC(C)C)CC3)cc3ccccc32)c1`: the inhibition was -0.495%.

On to `CCOc1ccc(CNC(=O)c2cc3c(=O)oc4ccc(C)cc4c3s2)cc1`, for which the inhibition is -6.21%.

For the compound `Cc1ccc(NC(=O)CSCc2cc(=O)c3ccccc3[nH]2)c(C)c1`, the inhibition is -15%.

Turning to `Cc1ccccc1CNCCCSc1nnnn1C`, the inhibition amounted to 7.57%.

Take `COc1ccc(C2C(C(=O)Nc3ccccc3)=C(C)Nc3nc(-c4ccc(Cl)cc4)nn32)cc1` (stereo not drawn): the inhibition is 10.7%.

For `CC(Nc1oc(-c2ccc(COc3ccccc3)o2)nc1C#N)c1ccccc1` (stereo not drawn), the inhibition is -2.89%.

As for `Cc1cc(C(=O)OCC(=O)NCCc2ccc(S(N)(=O)=O)cc2)c2ccccc2n1`, the inhibition was active: 37.6%.

Take `Cc1cccc(-n2ncc3c(NCCOCCO)ncnc32)c1`: the inhibition worked out at 14.9%.

Take `COc1cccc(N2CC(NC(=O)/C=C\c3ccccc3)CC2=O)c1` (stereo not drawn): the inhibition was -3.08%.

As for `CCC(=O)N1CCc2cc(S(=O)(=O)CCC(=O)Nc3cc(Cl)ccc3OC)ccc21`, the inhibition came to 1.92%.

Take `O=C(CSc1nc2c([nH]c3ccccc32)c(=O)n1-c1ccccc1F)Nc1cccc(Cl)c1`: the inhibition is 19.3%.

`CCOc1ccc(-c2cn3c(n2)sc2cc(C(=O)NC(C)C45CC6CC(CC(C6)C4)C5)ccc23)cc1` (stereo not drawn): the inhibition came to 0.691%.

For `CC1CCN(C(=O)Cn2cc(SCC(=O)NCc3ccccc3)c3ccccc32)CC1`, the inhibition turned out to be 7.22%.

Turning to `CCOc1ccc(C(c2c(O)cc(C)n(Cc3ccco3)c2=O)N2CCN(C)CC2)cc1` (stereo not drawn), the inhibition is -6.11%.

As to `O=S(=O)(c1ccccc1)n1nc(-c2ccco2)nc1NCc1ccccc1`, the inhibition amounted to 4.1%.

For the compound `CCC(Sc1nnc(-c2ccc(F)cc2)c(-c2ccc(F)cc2)n1)C(=O)NC1CCCC1` (stereo not drawn), the inhibition is -6.54%.

Consider `COc1ccc(-n2ncc(C(=O)NCc3cccs3)c2C2CCN(C(=O)OC(C)(C)C)CC2)cc1`, for which the inhibition is 0.541%.

Consider `Cc1cccc(CNC(=O)C2CCN(c3nn4cc(-c5ccc(F)cc5)nc4s3)CC2)c1`, for which the inhibition was determined as 7.67%.

`CCc1ccccc1N(CC)C(=O)c1cc2c(s1)-c1ccccc1SC2`: the inhibition was 2.51%.

`O=C(Cc1ccc(Cl)cc1)NC1CC(=O)N(c2ccc3c(c2)OCCO3)C1` (stereo not drawn): the inhibition is -26.7%.

In the case of `C=CCn1c(CCNC(=O)c2cccs2)nnc1SCC(=O)Nc1cccc(C(C)=O)c1`, the inhibition is active: 33.9%.

In the case of `CCC(=O)N1CCCc2cc(S(=O)(=O)N3CCC(C(=O)NC4CCC(C)CC4)CC3)ccc21` (stereo not drawn), the inhibition is -0.593%.

For `COc1ccc(-c2cn3c(n2)sc2cc(C(=O)NCCc4ccccc4)ccc23)cc1`, the inhibition was -13.7%.

`Cc1ccc(C)c(NC(=O)c2cnc(N3CCCC3)nc2C)c1`: the inhibition is -19.2%.

Consider `O=C(OCc1cc(=O)n2nc(C3CC3)sc2n1)c1cccc(NC(=O)c2ccccc2Cl)c1`, for which the inhibition amounted to 3.23%.

In the case of `O=C(O)Cc1ccc(-n2cccc2)cc1`, the inhibition was active: 37.1%.

For `COc1ccc(-c2noc(CN(C(=O)c3ccc(C)cc3C)C(C)C)n2)cc1`, the inhibition turned out to be 10.8%.

For the compound `CCOC(=O)c1ccccc1NC(=O)CSc1ccc(-c2sc(C)nc2C)nn1`, the inhibition came out at 16.5%.

Regarding `CCN(C(=O)c1c(C)oc2ncnc(N3CCCCC3)c12)c1cc(C)ccc1C`, the inhibition was 15.2%.

For the compound `COc1cc2nc(NCCc3cccc(C)c3)n3nc(-c4ccccc4)nc3c2cc1OC`, the inhibition was -15.8%.

Turning to `COc1ccc(C2CC(=O)Nc3c2c(C)nn3-c2nncc(-c3ccccc3)n2)c(OC)c1OC` (stereo not drawn), the inhibition is -8.5%.

As to `CCOC(=O)c1cnc2c(ccc3ccccc32)c1Nc1ccccc1O`, the inhibition is -8.89%.

On to `CCOC(=O)c1cccc(NC(=O)COc2ccc3c(C)cc(=O)oc3c2)c1`, for which the inhibition is -17.5%.

For the compound `O=C(CSc1ccc(-c2ccccc2)nn1)Nc1ccc2c(c1)OCCO2`, the inhibition was active: 32.1%.

In the case of `Cc1cc(=O)n2nc(N3CCC(C(=O)Nc4ccc(Br)c(C)c4)CC3)sc2n1`, the inhibition turned out to be 9.17%.

On to `COCCNC(=O)c1ccc(Cn2c(SCC(N)=O)nc3ccccc3c2=O)cc1`, for which the inhibition was found to be 1.97%.

Take `Cn1c(SCc2ccc(F)cc2)nc2ccc(C(=O)NCc3cccc(Cl)c3)cc21`: the inhibition was 11.7%.

`CCOc1ccccc1C(=O)NCc1ccc2c(c1)CCN2C(=O)c1ccc(F)cc1`: the inhibition is -4%.

Consider `Cc1ccc(N(Cc2cccs2)C(=O)c2ccc(OC(C)C)cc2)cc1`, for which the inhibition is 14.4%.

For `COc1ccc2c(CNC3CCC(C)CC3)c(C(=O)O)n(Cc3ccc(F)cc3)c2c1` (stereo not drawn), the inhibition is -10.5%.

Turning to `COc1cccc(OCCSc2nc3ccccc3n2CC(=O)N2CCOCC2)c1`, the inhibition turned out to be 15.4%.

`COc1ccccc1NC(=O)c1cc2c(-c3ccccc3)nn(-c3ccccc3)c2s1`: the inhibition is 4.94%.

As to `CCOc1ccccc1NC(=O)Cn1c(=O)nc(-c2ccccc2F)c2cc(Cl)ccc21`, the inhibition was 3.8%.

As for `CCc1ccccc1NC(=O)Cn1c(=O)n(C(C)C)c(=O)c2oc3ccccc3c21`, the inhibition was -10.4%.

With `COc1ccc(OCc2nc3ccccc3n2Cc2ccc(C(C)(C)C)cc2)cc1`, the inhibition is -28%.

On to `CCN(CC)C(=O)Cn1c(SCC(=O)Nc2ccc(F)cc2)nc2ccccc21`, for which the inhibition is -27.2%.

With `O=C(NCc1cccc(Br)c1)C1CCCCN1S(=O)(=O)c1ccc(F)cc1` (stereo not drawn), the inhibition is 10.6%.

For the compound `Cc1ccc(-c2nnc(SCc3ccccc3)o2)cc1`, the inhibition was -18.1%.

With `COc1cccc(NC(=O)C(C)n2c(=O)cc(C(F)(F)F)c3c(C)nn(C)c32)c1` (stereo not drawn), the inhibition was -5.62%.

As to `CCCNC(=O)CN1C(=O)COc2ccc(S(=O)(=O)N3CCCCCC3)cc21`, the inhibition was -0.659%.

For the compound `COc1cccc(OCC(O)CN2CCN(c3ccccc3)CC2)c1` (stereo not drawn), the inhibition was active: 85.9% and active: 82.8%.

As to `CCc1ccc(CNC(=O)CN2C(=O)C3CCCCN3c3ccc(C(=O)N4CCCC4)cc32)cc1` (stereo not drawn), the inhibition is -13.4%.
